Article PMC5062570 (Nature Communications, 2016)

Tests used:
[1] = target: PF-7802-labelled proteins in ARPE-19 cells (Homo sapiens, UniProt P18124); details: protein RPL7 60S ribosomal protein L7, P18124
[2] = target: PF-7802-labelled proteins in ARPE-19 cells (Homo sapiens, UniProt P56470); details: protein LGALS4 Galectin-4 (P56470); replicates in separate columns
[3] = target: PF-7802-labelled proteins in ARPE-19 cells (Bos taurus, UniProt P02662); details: protein no description (P02662); replicates in separate columns
[4] = target: PF-7802-labelled proteins in ARPE-19 cells (Homo sapiens, UniProt Q8NBS9); details: TXNDC5 Thioredoxin domain-containing protein 5 (Q8NBS9)
[5] = target: PF-7802-labelled proteins in ARPE-19 cells (Homo sapiens, UniProt P05026); details: protein ATP1B1 Sodium/potassium-transporting ATPase subunit beta-1 (P05026)
[6] = target: PF-7802-labelled proteins in ARPE-19 cells (Homo sapiens, UniProt P23284)
[7] = target: PF-7802-labelled proteins in ARPE-19 cells (Homo sapiens, UniProt Q15124); details: replicates in separate columns
[8] = target: PF-7802-labelled proteins in ARPE-19 cells (Homo sapiens, UniProt Q15746); details: for Median SILAC Ratio (Heavy/Light): protein MYLK Myosin light chain kinase, smooth muscle (Q15746), replicates in separate columns
[9] = target: PF-7802-labelled proteins in ARPE-19 cells (Homo sapiens, UniProt O43390); details: protein HNRNPR Heterogeneous nuclear ribonucleoprotein R (O43390); one column per replicate
[10] = target: T1, PF-7802-labelled proteins in ARPE-19 cells (Homo sapiens, UniProt Q12906); details: for Median SILAC Ratio (Heavy/Light): one column per replicate
T1 sequence (Q12906 1-894): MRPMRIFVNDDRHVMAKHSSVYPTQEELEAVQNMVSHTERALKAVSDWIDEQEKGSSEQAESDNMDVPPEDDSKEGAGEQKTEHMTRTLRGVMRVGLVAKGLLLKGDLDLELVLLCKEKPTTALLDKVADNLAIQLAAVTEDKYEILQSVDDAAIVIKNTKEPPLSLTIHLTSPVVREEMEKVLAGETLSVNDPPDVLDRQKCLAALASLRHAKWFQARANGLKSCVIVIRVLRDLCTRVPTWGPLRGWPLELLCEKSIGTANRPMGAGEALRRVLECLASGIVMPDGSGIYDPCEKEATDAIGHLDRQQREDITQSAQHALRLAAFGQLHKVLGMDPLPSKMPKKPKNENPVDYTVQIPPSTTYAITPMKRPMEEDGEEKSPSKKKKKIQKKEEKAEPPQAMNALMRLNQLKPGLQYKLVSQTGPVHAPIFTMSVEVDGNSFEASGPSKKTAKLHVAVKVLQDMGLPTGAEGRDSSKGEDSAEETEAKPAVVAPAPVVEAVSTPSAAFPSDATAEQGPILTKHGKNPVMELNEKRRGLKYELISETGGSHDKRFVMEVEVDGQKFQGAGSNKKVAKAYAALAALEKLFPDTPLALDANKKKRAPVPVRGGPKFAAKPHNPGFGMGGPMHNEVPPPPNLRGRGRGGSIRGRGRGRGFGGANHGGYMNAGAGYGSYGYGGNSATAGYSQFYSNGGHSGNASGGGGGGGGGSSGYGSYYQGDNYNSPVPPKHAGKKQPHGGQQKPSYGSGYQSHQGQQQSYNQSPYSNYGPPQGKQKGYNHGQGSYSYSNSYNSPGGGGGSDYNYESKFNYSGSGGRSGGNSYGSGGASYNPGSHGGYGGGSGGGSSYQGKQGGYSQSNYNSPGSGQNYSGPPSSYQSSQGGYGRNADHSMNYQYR

[11] = target: PF-7802-labelled proteins in ARPE-19 cells (Homo sapiens, UniProt Q13247); details: SRSF6 Serine/arginine-rich splicing factor 6 (Q13247)
[12] = target: PF-7802-labelled proteins in ARPE-19 cells (Homo sapiens, UniProt P62424); details: protein RPL7A 60S ribosomal protein L7a, P62424
[13] = target: PF-7802-labelled proteins in ARPE-19 cells (Homo sapiens, UniProt P01889); details: protein HLA-B HLA class I histocompatibility antigen, B-7 alpha chain (P01889); one column per replicate
[14] = target: PF-7802-labelled proteins in ARPE-19 cells (Homo sapiens, UniProt Q07021); details: protein C1QBP Complement component 1 Q subcomponent-binding protein, mitochondrial (Q07021)
[15] = target: PF-7802-labelled proteins in ARPE-19 cells (Homo sapiens, UniProt P07195); details: protein LDHB L-lactate dehydrogenase B chain (P07195); replicates in separate columns
[16] = target: PF-7802-labelled proteins in ARPE-19 cells (Homo sapiens, UniProt P30048); details: protein PRDX3 Thioredoxin-dependent peroxide reductase, mitochondrial, P30048
[17] = target: PF-7802-labelled proteins in ARPE-19 cells (Homo sapiens, UniProt P62070)
[18] = target: PF-7802-labelled proteins in ARPE-19 cells (Homo sapiens, UniProt P09493); details: TPM1 Tropomyosin alpha-1 chain (P09493)
[19] = target: PF-7802-labelled proteins in ARPE-19 cells (Homo sapiens, UniProt P16070); details: protein CD44 CD44 antigen (P16070)
[20] = target: PF-7802-labelled proteins in ARPE-19 cells (Homo sapiens, UniProt P07602); details: protein PSAP Proactivator polypeptide, P07602

UniProt P09493, sequence (P09493 whole entry): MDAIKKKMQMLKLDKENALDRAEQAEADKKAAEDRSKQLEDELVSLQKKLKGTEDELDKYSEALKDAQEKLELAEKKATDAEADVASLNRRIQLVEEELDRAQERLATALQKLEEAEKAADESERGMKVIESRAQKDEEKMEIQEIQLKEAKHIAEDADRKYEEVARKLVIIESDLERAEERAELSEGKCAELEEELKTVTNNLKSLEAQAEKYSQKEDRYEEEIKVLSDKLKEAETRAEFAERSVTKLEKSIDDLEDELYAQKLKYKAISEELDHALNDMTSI
UniProt Q15746, sequence (Q15746 whole entry): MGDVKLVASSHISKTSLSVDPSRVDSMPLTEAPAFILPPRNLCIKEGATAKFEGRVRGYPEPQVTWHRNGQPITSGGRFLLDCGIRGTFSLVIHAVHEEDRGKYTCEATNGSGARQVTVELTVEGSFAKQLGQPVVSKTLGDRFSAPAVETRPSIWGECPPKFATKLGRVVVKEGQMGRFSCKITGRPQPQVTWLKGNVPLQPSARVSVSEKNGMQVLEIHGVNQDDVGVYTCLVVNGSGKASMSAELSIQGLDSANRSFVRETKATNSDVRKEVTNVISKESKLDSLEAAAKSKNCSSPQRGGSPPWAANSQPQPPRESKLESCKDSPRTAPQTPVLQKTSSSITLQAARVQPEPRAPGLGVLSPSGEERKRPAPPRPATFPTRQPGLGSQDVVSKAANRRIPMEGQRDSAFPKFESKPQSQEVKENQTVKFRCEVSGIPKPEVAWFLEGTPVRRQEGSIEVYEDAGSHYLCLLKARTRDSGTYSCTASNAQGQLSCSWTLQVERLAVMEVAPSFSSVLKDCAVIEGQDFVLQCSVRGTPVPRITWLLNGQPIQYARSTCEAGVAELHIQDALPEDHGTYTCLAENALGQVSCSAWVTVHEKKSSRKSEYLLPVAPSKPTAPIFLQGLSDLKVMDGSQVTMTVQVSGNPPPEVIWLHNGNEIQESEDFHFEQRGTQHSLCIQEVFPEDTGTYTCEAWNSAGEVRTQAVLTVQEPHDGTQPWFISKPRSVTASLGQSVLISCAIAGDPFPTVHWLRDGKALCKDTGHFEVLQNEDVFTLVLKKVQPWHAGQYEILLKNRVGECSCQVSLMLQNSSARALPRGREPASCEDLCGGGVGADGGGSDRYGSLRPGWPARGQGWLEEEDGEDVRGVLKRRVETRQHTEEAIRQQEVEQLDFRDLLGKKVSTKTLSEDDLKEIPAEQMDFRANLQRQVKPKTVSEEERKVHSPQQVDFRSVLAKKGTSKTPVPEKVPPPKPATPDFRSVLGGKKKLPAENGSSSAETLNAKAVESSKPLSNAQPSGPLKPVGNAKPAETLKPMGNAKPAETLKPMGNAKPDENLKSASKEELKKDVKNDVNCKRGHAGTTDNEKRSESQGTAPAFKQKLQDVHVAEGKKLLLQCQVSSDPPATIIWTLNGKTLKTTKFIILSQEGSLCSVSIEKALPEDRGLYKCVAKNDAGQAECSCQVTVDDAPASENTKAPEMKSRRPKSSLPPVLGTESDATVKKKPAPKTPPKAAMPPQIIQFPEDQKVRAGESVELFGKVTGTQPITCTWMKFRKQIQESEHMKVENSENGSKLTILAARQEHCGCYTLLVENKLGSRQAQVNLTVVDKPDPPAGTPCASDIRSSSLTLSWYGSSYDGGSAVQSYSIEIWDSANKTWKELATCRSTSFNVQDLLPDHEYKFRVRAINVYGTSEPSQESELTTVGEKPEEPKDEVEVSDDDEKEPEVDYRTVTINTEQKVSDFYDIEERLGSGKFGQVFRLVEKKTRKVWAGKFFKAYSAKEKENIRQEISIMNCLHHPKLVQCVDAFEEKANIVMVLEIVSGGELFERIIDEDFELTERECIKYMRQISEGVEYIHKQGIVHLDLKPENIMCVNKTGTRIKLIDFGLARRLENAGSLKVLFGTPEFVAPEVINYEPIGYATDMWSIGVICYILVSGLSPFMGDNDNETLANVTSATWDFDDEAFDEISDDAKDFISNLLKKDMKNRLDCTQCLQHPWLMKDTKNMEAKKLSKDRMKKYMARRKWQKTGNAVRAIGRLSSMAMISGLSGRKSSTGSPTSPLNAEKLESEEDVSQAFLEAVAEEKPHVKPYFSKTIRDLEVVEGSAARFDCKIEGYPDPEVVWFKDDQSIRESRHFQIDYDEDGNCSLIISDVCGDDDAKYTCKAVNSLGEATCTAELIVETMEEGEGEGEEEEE
UniProt O43390, sequence (O43390 whole entry): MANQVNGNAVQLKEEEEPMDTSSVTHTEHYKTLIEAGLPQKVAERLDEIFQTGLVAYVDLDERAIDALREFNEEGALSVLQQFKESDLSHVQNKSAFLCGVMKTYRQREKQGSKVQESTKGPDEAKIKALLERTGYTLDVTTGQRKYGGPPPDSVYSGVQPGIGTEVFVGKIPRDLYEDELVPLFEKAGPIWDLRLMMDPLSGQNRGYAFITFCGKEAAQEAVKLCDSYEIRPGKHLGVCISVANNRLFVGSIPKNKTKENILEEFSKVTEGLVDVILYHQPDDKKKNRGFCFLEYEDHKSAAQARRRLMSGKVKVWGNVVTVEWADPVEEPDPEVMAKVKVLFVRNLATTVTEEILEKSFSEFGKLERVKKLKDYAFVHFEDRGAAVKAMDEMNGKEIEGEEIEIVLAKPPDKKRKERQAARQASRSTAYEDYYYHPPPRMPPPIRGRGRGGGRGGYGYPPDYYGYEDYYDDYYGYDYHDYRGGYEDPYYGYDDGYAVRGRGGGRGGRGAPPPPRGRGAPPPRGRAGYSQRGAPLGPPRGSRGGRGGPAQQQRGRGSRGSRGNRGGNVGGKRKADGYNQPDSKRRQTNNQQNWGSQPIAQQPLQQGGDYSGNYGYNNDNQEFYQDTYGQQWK
UniProt Q15124, sequence (Q15124 whole entry): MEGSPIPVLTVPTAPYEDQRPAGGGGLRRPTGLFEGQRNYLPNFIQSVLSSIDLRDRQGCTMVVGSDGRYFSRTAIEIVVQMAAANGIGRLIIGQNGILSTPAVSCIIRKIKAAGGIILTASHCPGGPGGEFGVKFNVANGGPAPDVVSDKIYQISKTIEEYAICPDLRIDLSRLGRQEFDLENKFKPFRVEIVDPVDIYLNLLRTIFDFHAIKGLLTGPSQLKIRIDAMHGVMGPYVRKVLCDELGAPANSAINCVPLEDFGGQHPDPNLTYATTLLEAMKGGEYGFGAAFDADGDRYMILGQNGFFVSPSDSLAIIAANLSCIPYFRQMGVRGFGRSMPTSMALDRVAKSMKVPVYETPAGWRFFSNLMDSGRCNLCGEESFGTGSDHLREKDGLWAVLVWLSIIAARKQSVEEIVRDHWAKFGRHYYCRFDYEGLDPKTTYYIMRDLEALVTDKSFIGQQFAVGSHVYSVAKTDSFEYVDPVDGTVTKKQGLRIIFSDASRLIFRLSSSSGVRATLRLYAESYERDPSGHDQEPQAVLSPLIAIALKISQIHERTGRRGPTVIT
UniProt P56470, sequence (P56470 whole entry): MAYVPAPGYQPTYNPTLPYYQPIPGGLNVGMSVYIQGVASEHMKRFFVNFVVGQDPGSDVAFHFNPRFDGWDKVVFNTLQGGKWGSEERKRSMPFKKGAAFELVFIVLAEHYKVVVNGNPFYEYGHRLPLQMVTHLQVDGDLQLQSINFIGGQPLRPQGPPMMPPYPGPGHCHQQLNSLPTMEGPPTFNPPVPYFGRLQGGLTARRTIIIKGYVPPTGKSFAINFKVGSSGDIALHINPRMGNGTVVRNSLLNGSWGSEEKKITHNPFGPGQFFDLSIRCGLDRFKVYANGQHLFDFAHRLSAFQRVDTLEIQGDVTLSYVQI
UniProt P62070, sequence (P62070 whole entry): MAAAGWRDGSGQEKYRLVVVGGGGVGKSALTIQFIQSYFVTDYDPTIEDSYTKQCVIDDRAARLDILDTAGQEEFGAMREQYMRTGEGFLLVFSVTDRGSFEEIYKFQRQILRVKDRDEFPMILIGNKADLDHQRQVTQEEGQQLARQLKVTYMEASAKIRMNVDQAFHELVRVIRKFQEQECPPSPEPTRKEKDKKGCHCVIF
UniProt Q13247, sequence (Q13247 whole entry): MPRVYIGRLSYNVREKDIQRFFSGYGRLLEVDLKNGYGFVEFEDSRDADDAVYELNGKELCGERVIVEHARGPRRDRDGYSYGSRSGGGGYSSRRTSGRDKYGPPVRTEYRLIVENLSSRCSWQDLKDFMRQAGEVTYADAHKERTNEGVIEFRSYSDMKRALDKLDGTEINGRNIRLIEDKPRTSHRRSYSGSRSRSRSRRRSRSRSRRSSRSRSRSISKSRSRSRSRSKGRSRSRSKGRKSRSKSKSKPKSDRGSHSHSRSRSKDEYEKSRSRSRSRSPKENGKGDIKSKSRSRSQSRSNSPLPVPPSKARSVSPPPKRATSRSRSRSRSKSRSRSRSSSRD
UniProt P07195, sequence (P07195 whole entry): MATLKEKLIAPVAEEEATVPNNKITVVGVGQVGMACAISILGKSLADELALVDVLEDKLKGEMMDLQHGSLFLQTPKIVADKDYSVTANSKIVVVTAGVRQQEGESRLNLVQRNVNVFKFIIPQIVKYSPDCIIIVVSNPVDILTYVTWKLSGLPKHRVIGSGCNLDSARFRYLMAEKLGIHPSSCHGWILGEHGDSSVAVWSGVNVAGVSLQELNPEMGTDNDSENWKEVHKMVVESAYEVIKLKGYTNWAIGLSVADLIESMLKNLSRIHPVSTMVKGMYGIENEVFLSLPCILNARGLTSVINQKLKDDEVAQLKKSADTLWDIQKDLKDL

| Structure (SMILES) | Median SILAC Ratio (Heavy/Light) [1] | Median SILAC Ratio (Heavy/Light) [2] | Median SILAC Ratio (Heavy/Light) [3] | Median SILAC Ratio (Heavy/Light) [5] | Median SILAC Ratio (Heavy/Light) [8] | Median SILAC Ratio (Heavy/Light) [9] | Median SILAC Ratio (Heavy/Light) [11] | Median SILAC Ratio (Heavy/Light) [13] | Median SILAC Ratio (Heavy/Light) [14] | Median SILAC Ratio (Heavy/Light) [16] | Median SILAC Ratio (Heavy/Light) [18] | Median SILAC Ratio (Heavy/Light) [19] | also measured |
| --- | --- | --- | --- | --- | --- | --- | --- | --- | --- | --- | --- | --- | --- |
| CNC1CCN(C(=O)C[C@@H](Cc2ccccc2)C(=O)N[C@@H](CSC)C(=O)N[C@@H](CC2CCCCC2)[C@@H](O)C(=O)OC(C)C)CC1 [CP-108671, reference compound] | 1.745 | 0.6307 | 29.4002 | 1.281 | 1.1965 | 0.8378 | 0.63 | 1.249 | 1.222 | 1.412 | 1.679 | 1.048 | Median SILAC Ratio (Heavy/Light) [4]: 1.019; SILAC ratio (DMSO/CP-108671) ([6]; P23284 PPIB Peptidyl-prolyl cis-trans isomerase B): 0.87; Median SILAC Ratio (Heavy/Light) ([6]; protein PPIB Peptidyl-prolyl cis-trans isomerase B, P23284): 1.163 and 0.8743; Median SILAC Ratio (Heavy/Light) ([7]; protein PGM5 Phosphoglucomutase-like protein 5 (Q15124)): 1.603; SILAC ratio (DMSO/CP-108671) ([8]; Q15746 MYLK Myosin light chain kinase, smooth muscle): 0.84; SILAC ratio (DMSO/CP-108671) ([10]; Q12906 ILF3 Interleukin enhancer-binding factor 3): 0.96; Median SILAC Ratio (Heavy/Light) ([10]; protein ILF3 Interleukin enhancer-binding factor 3 (Q12906)): 1.038; Median SILAC Ratio (Heavy/Light) [12]: 1.406; Median SILAC Ratio (Heavy/Light) [15]: 2.135; SILAC ratio (DMSO/CP-108671) ([17]; P62070 RRAS2 Ras-related protein R-Ras2): 0.88; Median SILAC Ratio (Heavy/Light) ([17]; protein RRAS2 Ras-related protein R-Ras2, P62070): 1.131 |
| Cc1cc([C@H]2C[C@H]3[C@@H](C)SC(N)=N[C@@]3(c3ccc(F)cc3F)CO2)on1 [PF-9283] | 1.695 | 1.347 | 69.6913 | 1.257 | 1.138 | 0.8073 | 0.633 | 1.51 | 1.348 | 1.161 | 1.8079 and 1.479 | 1.27 and 0.8524 | Median SILAC Ratio (Heavy/Light) [20]: 0.7977; Median SILAC Ratio (Heavy/Light) ([7]; […]): 0.7945; Median SILAC Ratio (Heavy/Light) ([10]; […]): 1.229 |

Values joined by “and” are separate entries in the source; they are usually repeats but may differ in a detail not shown here. Identical values can stand only once. Like-named read-outs stand apart in the source and are kept apart here.
